Laboratory results published in the supplement of paper PMC12217912.
Some of the results follow. Sequences were assembled here from the parent chain. Values near 0.05 are background.

B1: TEV protease; numbered along this chain (parent)
chain: MGESLFKGPRDYNPISSSICHLTNESDGHTTSLYGIGFGPFIITNKHLFRRNNGTLVVQSLHGVFKVKDTTTLQQHLVDGRDMIIIRMPKDFPPFPQKLKFREPQREERICLVTTNFQTKSMSSMVSDTSCTFPSGDGIFWKHWIQTKDGQCGSPLVSTRDGFIVGIHSASNFTNTNNYFTSVPKNFMELLTNQEAQQWVSGWRLNADSVLWGGHKVFMVKPEEPFQPVKEATQL

Variants of: B1
Assay: raw area under fraction-flipped curve 0-4 h after induction (AUC4h, not background-subtracted), DNA-recorder readout of cleavage of the substrate (dimensionless); higher = more cleavage of the substrate by the protease variant
Details: temperature: 34 °C; time window: 0-4 h after rhamnose induction
Experimental: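 In vivo DNA recorder in E. coli TOP10(DE3) ΔrhaA at 34 °C. Each TEVp single-site mutant (parent TEVp 0) is paired with a single-site variant of the 7-mer TEVs (canonical ENLYFQ|S). The substrate sits between flexible linkers in a Bxb1-sfGFP-TEVs-SsrA fusion, so cleavage stabilises Bxb1 and speeds flipping of a recombination array, read by NGS. The value is the raw area under the fraction-flipped curve over 0-4 h after rhamnose induction (AUC4h), with ≥20 reads per time point. It is not background-subtracted; inactive controls average about 0.047.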
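Note: Bxb1 expression induced with 0.2% (w/v) L-rhamnose at OD600 near 0.5, cultures sampled hourly, flipped fraction per protease–substrate barcode pair counted by paired-end Illumina sequencing.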

## P225M
  area with substrate CNLYFQS: 0.0662
  area with substrate FNLYFQS: 0.0517
  area with substrate GNLYFQS: 0.0687
  area with substrate HNLYFQS: 0.0614
  area with substrate KNLYFQS: 0.0657
  area with substrate LNLYFQS: 0.0693
  area with substrate PNLYFQS: 0.065
  area with substrate SNLYFQS: 0.0259
  area with substrate TNLYFQS: 0.0705
  area with substrate VNLYFQS: 0.08
  area with substrate WNLYFQS: 0.0556

## A207W
  area with substrate CNLYFQS: 0.0642
  area with substrate GNLYFQS: 0.071
  area with substrate HNLYFQS: 0.047
  area with substrate MNLYFQS: 0.0786
  area with substrate NNLYFQS: 0.0668
  area with substrate PNLYFQS: 0.0723

## A207Q
  area with substrate CNLYFQS: 0.0827
  area with substrate FNLYFQS: 0.0731
  area with substrate VNLYFQS: 0.0736
  area with substrate YNLYFQS: 0.0793

## S127C
  area with substrate CNLYFQS: 0.079
  area with substrate FNLYFQS: 0.0742
  area with substrate GNLYFQS: 0.0708
  area with substrate HNLYFQS: 0.0765
  area with substrate KNLYFQS: 0.0513
  area with substrate LNLYFQS: 0.0741
  area with substrate MNLYFQS: 0.0734
  area with substrate PNLYFQS: 0.0704
  area with substrate SNLYFQS: 0.0602
  area with substrate TNLYFQS: 0.0505
  area with substrate VNLYFQS: 0.0728
  area with substrate WNLYFQS: 0.0585
  area with substrate YNLYFQS: 0.0712

## F6P
  area with substrate CNLYFQS: 0.0668
  area with substrate GNLYFQS: 0.0619
  area with substrate HNLYFQS: 0.0445
  area with substrate KNLYFQS: 0.0731
  area with substrate LNLYFQS: 0.0522
  area with substrate PNLYFQS: 0.0656
  area with substrate TNLYFQS: 0.0585
  area with substrate VNLYFQS: 0.0642
  area with substrate YNLYFQS: 0.0581

## L190A
  area with substrate CNLYFQS: 0.0622
  area with substrate GNLYFQS: 0.104
  area with substrate HNLYFQS: 0.0575
  area with substrate INLYFQS: 0.057
  area with substrate KNLYFQS: 0.0579
  area with substrate LNLYFQS: 0.0624
  area with substrate MNLYFQS: 0.0381
  area with substrate PNLYFQS: 0.0546
  area with substrate RNLYFQS: 0.0518
  area with substrate TNLYFQS: 0.0615
  area with substrate VNLYFQS: 0.0688
  area with substrate WNLYFQS: 0.0606
  area with substrate YNLYFQS: 0.0774

## F133H
  area with substrate CNLYFQS: 0.0632
  area with substrate GNLYFQS: 0.0801
  area with substrate LNLYFQS: 0.0613
  area with substrate MNLYFQS: 0.0639
  area with substrate TNLYFQS: 0.0785
  area with substrate WNLYFQS: 0.0754

## F140N
  area with substrate CNLYFQS: 0.0608
  area with substrate FNLYFQS: 0.0966
  area with substrate HNLYFQS: 0.0503
  area with substrate INLYFQS: 0.0534
  area with substrate PNLYFQS: 0.0547
  area with substrate SNLYFQS: 0.0588
  area with substrate TNLYFQS: 0.0571
  area with substrate VNLYFQS: 0.058
  area with substrate WNLYFQS: 0.0525

## L5K
  area with substrate CNLYFQS: 0.0586
  area with substrate HNLYFQS: 0.0689
  area with substrate KNLYFQS: 0.0697
  area with substrate MNLYFQS: 0.0513
  area with substrate PNLYFQS: 0.068
  area with substrate TNLYFQS: 0.0661
  area with substrate WNLYFQS: 0.0467

## L77C
  area with substrate CNLYFQS: 0.0689
  area with substrate FNLYFQS: 0.0472
  area with substrate HNLYFQS: 0.0739
  area with substrate INLYFQS: 0.0509
  area with substrate KNLYFQS: 0.105
  area with substrate LNLYFQS: 0.0638
  area with substrate MNLYFQS: 0.0797
  area with substrate NNLYFQS: 0.0612
  area with substrate SNLYFQS: 0.0595
  area with substrate TNLYFQS: 0.0564
  area with substrate VNLYFQS: 0.0472
  area with substrate WNLYFQS: 0.0555

## K68P
  area with substrate CNLYFQS: 0.0655
  area with substrate HNLYFQS: 0.0675
  area with substrate INLYFQS: 0.0594
  area with substrate MNLYFQS: 0.0487
  area with substrate PNLYFQS: 0.0758
  area with substrate SNLYFQS: 0.0657
  area with substrate TNLYFQS: 0.0786
  area with substrate WNLYFQS: 0.0552

## T159S
  area with substrate CNLYFQS: 0.0696
  area with substrate GNLYFQS: 0.0625
  area with substrate HNLYFQS: 0.0704
  area with substrate INLYFQS: 0.0842
  area with substrate PNLYFQS: 0.0642
  area with substrate TNLYFQS: 0.0746
  area with substrate WNLYFQS: 0.0546
  area with substrate YNLYFQS: 0.0674

## L191E
  area with substrate CNLYFQS: 0.0602
  area with substrate GNLYFQS: 0.0568
  area with substrate HNLYFQS: 0.0504
  area with substrate INLYFQS: 0.0565
  area with substrate MNLYFQS: 0.0613
  area with substrate NNLYFQS: 0.0614
  area with substrate PNLYFQS: 0.0621
  area with substrate TNLYFQS: 0.0667
  area with substrate VNLYFQS: 0.0481
  area with substrate WNLYFQS: 0.0346

## L191S
  area with substrate CNLYFQS: 0.0553
  area with substrate FNLYFQS: 0.0528
  area with substrate GNLYFQS: 0.08
  area with substrate INLYFQS: 0.0502
  area with substrate MNLYFQS: 0.0443
  area with substrate WNLYFQS: 0.0431
  area with substrate YNLYFQS: 0.0347

## G213V
  area with substrate CNLYFQS: 0.0175
  area with substrate HNLYFQS: 0.0588
  area with substrate NNLYFQS: 0.06
  area with substrate SNLYFQS: 0.0654
  area with substrate TNLYFQS: 0.0588

## V157Q
  area with substrate CNLYFQS: 0.0359
  area with substrate GNLYFQS: 0.0731
  area with substrate HNLYFQS: 0.0617
  area with substrate KNLYFQS: 0.0463
  area with substrate LNLYFQS: 0.0595
  area with substrate MNLYFQS: 0.0536
  area with substrate SNLYFQS: 0.062
  area with substrate TNLYFQS: 0.0635
  area with substrate WNLYFQS: 0.062
  area with substrate YNLYFQS: 0.065

## K90R
  area with substrate CNLYFQS: 0.0751
  area with substrate HNLYFQS: 0.0527
  area with substrate QNLYFQS: 0.0649
  area with substrate YNLYFQS: 0.075

## K90P
  area with substrate CNLYFQS: 0.0523
  area with substrate HNLYFQS: 0.0633
  area with substrate INLYFQS: 0.062
  area with substrate KNLYFQS: 0.0675
  area with substrate PNLYFQS: 0.0537
  area with substrate SNLYFQS: 0.0901
  area with substrate TNLYFQS: 0.0522
  area with substrate WNLYFQS: 0.0842
  area with substrate YNLYFQS: 0.0728

## Q118R
  area with substrate CNLYFQS: 0.056
  area with substrate FNLYFQS: 0.0469
  area with substrate GNLYFQS: 0.0672
  area with substrate HNLYFQS: 0.0569
  area with substrate KNLYFQS: 0.0359
  area with substrate LNLYFQS: 0.0691
  area with substrate RNLYFQS: 0.0546
  area with substrate SNLYFQS: 0.0762
  area with substrate VNLYFQS: 0.0973
  area with substrate YNLYFQS: 0.0649

## Q198H
  area with substrate CNLYFQS: 0.0711
  area with substrate HNLYFQS: 0.0682
  area with substrate KNLYFQS: 0.0803
  area with substrate NNLYFQS: 0.0636
  area with substrate WNLYFQS: 0.0824
  area with substrate YNLYFQS: 0.0706
